Variants at the floor of the assay are shown more often than the library holds them.
B1: TPR 5TU (parent)
chain: GGAUCUUCUCGAUCUAACAAAAAAGACAAAUCUGCCACAAAGCUUGAGAGCAUCUUCGGAUGCAGAGGCGGCAGCCUUCGGUGGCGCGAUAGCGCCAACGUUCUCAACUAUGACACGCAAAACGCGUGCUCCGUUGAAUGGAGUUUAUCAUG

Variants of: B1
Test: polymerase ribozyme fitness, log enrichment relative to wild type (log ratio); higher = more active; in vitro selection for triplet polymerase activity
Method in brief: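 PCR was used to build mutant libraries for each subunit of a heterodimeric triplet polymerase ribozyme, which were then transcribed. A single in vitro selection round, in triplicate, used a frozen incubation at −7 °C and recovered extended constructs by gel excision, streptavidin beads and RT-PCR. Fitness is the logarithm of genotype enrichment relative to wild-type enrichment, averaged over replicates with inverse-variance weights. The logarithm is base 2, and after Illumina sequencing only genotypes with ≥10 input reads and ≥1 read per output were kept.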

Variant	polymerase ribozyme fitness (log ratio)
U7A A23U A47C U55G C63A U77A C87A A89U C93U C99A	≤ -4.2
U7A G84A G94U U146A	≤ -4.2
U7G C10G C36U G67A C125U G141C C149G	≤ -4.2
U6G A19G U55A G71A G80A G92C A107G	≤ -4.2
U7C C87U G88U U104G	≤ -4.2
U6G C51U C85U C95A C103G G140A	≤ -4.2
U6G A24U C79A G84U C85U G117U G141A	≤ -4.2
U7A U31A C38A G68U A73U G86U C93U	≤ -4.2
U6G A29C C79A C96G	≤ -4.2
U6C G50A A73U C93G G100U A107G U109C A142C A150U	≤ -4.2
U7G A17G A28U U31A G59C C95G C132G G140U	≤ -4.2
U6G G84C C96U C132G U144C	≤ -4.2
U7A C10U C35U G71A U78G G84C G92A	≤ -4.2
U6G A26U G84C	-2.97
U7G A20C C51U A52C U56A G86A C123U C131G U148A	≤ -4.2
U6G A17U C18G C51A G74A G83A A97G G124U U144C	≤ -4.2
U7G A21U C54A A66C A91C G136A	≤ -4.2
U7G A60G U90C C93G C125U G136A	≤ -4.2
U7A C43U C85U C99U C132U	≤ -4.2
U7A C10G U55A C72U G94A U151A	≤ -4.2
U7A A16C C35A A47U G50A C75A U90G C95U A121G G152U	≤ -4.2
U6G A52G G71C C93U C96A U104A	≤ -4.2
U7G A37C A60C A73U C96A G128U	≤ -4.2
U7C U33G C38U C85A	≤ -4.2

Variant	polymerase ribozyme fitness (log ratio)
U7A A29G C76G C85G	≤ -4.2
U7A A29C G50U G92A	≤ -4.2
U7A C85G G117U G143U	≤ -4.2
U6G C8U A23U	≤ -4.2
U7G A37C C95G	≤ -4.2
U7G A16G A23U G50A C85U C93G C114A U144G	≤ -4.2
U7A C14G A29G C35G C36A G74A A91U C96A	≤ -4.2
U6G A52C C96U C131A A142C	≤ -4.2
U6G A47U U61G C69A	≤ -4.2
U7C C8A A29C U56C U134A	≤ -4.2
U7C U45A A64G C76U G83A C95A G126U U130C	≤ -4.2
U7A U13C A17U C43A G59C C95A C103G C123U	≤ -4.2
U6G U61A C85A C96A A121G	≤ -4.2
U7A C87G A142G	≤ -4.2
U7C A16C U33G G80U G81A A91G G141C	≤ -4.2
U7A A20U A22U C36U A52G G67U G92U U109G	≤ -4.2
U7C A41C C87U G126A	-3.82
U6G A26U C93U	-2.39
U7G A28G A30U C57A G94U U139C	≤ -4.2
U7C C85U C87G C93G C99G A137U G140A	≤ -4.2
U6G A49U A73U C87U	≤ -4.2
U7C G25A A47U U90C C95U C108G C129G U139A U144G	≤ -4.2
U7A U55A G84U	≤ -4.2
U6C U31G G46C A47C G133U	≤ -4.2

Variant	polymerase ribozyme fitness (log ratio)
U7C C72U C75A A89U U109A A119U	≤ -4.2
U6C G42U U77G C87U A122U	≤ -4.2
U7C C54G G86C C96U A98G G124C	≤ -4.2
U6G A73U G81C A98C C99U U144C	-3.62
U7G A26U G50C G74C G94C C116A C129U A142U	≤ -4.2
U7G A24U A49G G67C G68C C87U A89C G126A G143A C149G	≤ -4.2
U7C A16U G92C C116G	-3.77
U6G G80C C149A	≤ -4.2
U7A A12G A28U A49C C75U G92A C116U	≤ -4.2
U6G C8A C54U G65C C85A C95U C114A G141U	≤ -4.2
U7A A19C A30U G94A C103U U104G U109G C118U	≤ -4.2
U6C G46U G59C G92C U104A U145G	≤ -4.2
U7C C27G C57G G88C G124A U134G	≤ -4.2
U6G U13G U31C U53A G58C G84A A98G U102C G124A	≤ -4.2
U6G G25C A37C G65C G86C A98U A122U	≤ -4.2
U7G A19G A47G G74C C87A A98U	≤ -4.2
U6G G25C C54A C95A G140A U146G	≤ -4.2
U7A U13G G71C	≤ -4.2
U6G A40U U53A U55G C76A A97U A106G A147C A150C	≤ -4.2
U6G A23U C51A U55G A115U	≤ -4.2
U7G C10G A19U C85G A98G C105A G136U U144C	≤ -4.2
U7G C8A A20U A23U C35G U55G C69A G71A G86A A113G	≤ -4.2
U6G G80A U82G G141U	0.34
U6G C14U G42A C87U U104G C125U	≤ -4.2

Variant	polymerase ribozyme fitness (log ratio)
U7G A19C A66G G67A C93A G141C	≤ -4.2
U6G A40C	1.13
U6G C35G C95A C99U U102A U111C	≤ -4.2
U7C A49C C57A G84U G136U	≤ -4.2
U7C A19U G83C U127G	≤ -4.2
U6G A26C G83U A89U	-3.85
U6C G86C U104G	≤ -4.2
U7A C10U G70C G84C A120C G141C	≤ -4.2
U6C G70A C76G C87A G88A C116A	≤ -4.2
U6G C32A C36G C75A U82C G84U C85G C87U	≤ -4.2
U7C A29U C57U C95G	≤ -4.2
U7A A41C C43U G71A C87U A113G C118A U127A G128A	≤ -4.2
U7A A24G A30G C54U U55A G94U	≤ -4.2
U7A C10A C51U A52G A73G C87G A138C	≤ -4.2
U6G A12C C14U A73U G81C G83U A91U A113U A138C	≤ -4.2
U7C A49C C57A G88A A89C A107U	≤ -4.2
U7C A28C U55A U56A G67C G94U G140C A147U	≤ -4.2
U6G U139C	-3.69
U7C A40G C54U C76G C79U C96U C123U U135G U151A	≤ -4.2
U7C C18A A20U A30U G48C C51U C95A U101C	≤ -4.2
U6G C35U C76A C87U	-2.63
U6G G83C	-0.223
U7A C18A U33G A66U G84A G100A G124C	≤ -4.2
U7C G25U A30G C72A U127C A137U	≤ -4.2

Variant	polymerase ribozyme fitness (log ratio)
U7A U44A G94C G133C G141C	≤ -4.2
U6G C75G C85A U101G C105A A119U	≤ -4.2
U6G C38U U44A G81C A120C G140U	≤ -4.2
U7G A26U U56A G59U C75G G84U G94U U130G U146C	≤ -4.2
U7G C14U A23G G58A C75A C87G C99G	≤ -4.2
U6G A24C U33A U56G G68C C69U G92A C96G G136U G143U U145A	≤ -4.2
U7A C93U C132G A147G	≤ -4.2
U7C C57A C85A	≤ -4.2
U6G A28U A41G G88C G143A U144C U146G	≤ -4.2
U6G A17C A52U U55A C96A U135G	≤ -4.2
U7G C10A G34A G84A A98U G124C	≤ -4.2
U6G A52U A64G G84A	≤ -4.2
U7A A16G C36U A89U G92U A97C	≤ -4.2
U7A C38U C75G C85U C125U	≤ -4.2
U7G A49G A52G U55A G84C U90G G100U A113G	≤ -4.2
U7C G50U C87A U90A A106C	≤ -4.2
U7A C35G G46C G80C G86A C95U	≤ -4.2
U7G A20U G59U A60G U61A G117U C123U U145A	≤ -4.2
U7A A47C G65C C76A U78G C95U C118A C131G C149A	≤ -4.2
U7A C14G A26G G46U C95A C96A	≤ -4.2
U7G A47C U55G U90G C93U C95G	≤ -4.2
U7C A37C G67C C87U	≤ -4.2
U7G A19C A21G G80C G83U A122U G136A	≤ -4.2
U7A C14G U15A A22C C54U G62U C93G C96U A98C	≤ -4.2

Variant	polymerase ribozyme fitness (log ratio)
U6G G25U C54G C76U C87A C99G U104G U151A	≤ -4.2
U7A C14G G50C G58A G86U U102G A106U U111G U135A U148C	≤ -4.2
U7C C10G C69U U90A U135A A138G U139A	≤ -4.2
U7G C14G A52C U55C G80A G86U C87A	≤ -4.2
U7G A20C U56G U146G	-3.82
U6C G11C A21C C36A G50A G88U A91C G136U	≤ -4.2
U6C G58A U61A G71U G133C	≤ -4.2
U7G A22U A23C A52U C87U C132U	≤ -4.2
U7C C38U C87A A122U	≤ -4.2
U6C G124C C129A	-4.16
U7C A28U C43U G62A G83A A89G U102C A115U	≤ -4.2
U7C A17G A40G U44A C79A A110C	≤ -4.2
U6G A60C A73C C87A C118U	≤ -4.2
U7A A22C A28C A60C G92A G143C A147G	≤ -4.2
U6C G59U C85A C99G C118G	≤ -4.2
U7A G11C U56G G92U C93U C96G A119C G133C	≤ -4.2
U7A A22C C85U	-4.04
U6G A17C C75G A107G U134A U146A	≤ -4.2
U6G G25U A49C C93U G128U	≤ -4.2
U7G C8A G46C C63U G83C C85G C114G C149A	≤ -4.2
U6G A20U C43U A47U G59A G65C A73C G88U C96A A142G	≤ -4.2
U7G A12U A73C A120U	≤ -4.2
U6G U53G G86C G140U U144C	≤ -4.2
U7G A30G A73U G92U U144C	≤ -4.2

Variant	polymerase ribozyme fitness (log ratio)
U6G U33G C93A U146C	≤ -4.2
U7C A17G C72U G86A C95A A97G A98U U104A A122U	≤ -4.2
U7A G84A A98G A110G	≤ -4.2
U6C U53A G71U C76A G88C G143C	≤ -4.2
U6G U7G A30U G83C C95G G136A	≤ -4.2
U7C C54G C76U C79G G88C C108U G140C	≤ -4.2
U7A A29C A60U C76G C95U G133A G141A	≤ -4.2
U7C G88A G92C	≤ -4.2
U7G A16G G62A A73U C95U C118U	≤ -4.2
U7C C8G A30U C36A G71A C95G G126A	≤ -4.2
U6C G117C	-0.247
U7C C10G U15G G65A C85G G86U G141A U144C	≤ -4.2
U7A A22C G50C G81U U82C	≤ -4.2
U6G C87U A110G G133U G140U	≤ -4.2
U6G C8A U56A C75A C95U A119U G141U U145G	≤ -4.2
U6G A21U U56G G74C A113U	≤ -4.2
U6G G62C A97U C108G	≤ -4.2
U6G C8A C14G C93A A107G	≤ -4.2
U7G A22G G74U C85A G126U U144A	≤ -4.2
U7C C10U A40C C85A A89C G100A C116A	≤ -4.2
U7A C14G U44A U45A A47C G86A U130G	≤ -4.2
U6G C35U G50U U148A	≤ -4.2
U7C C79U G92U C105U	≤ -4.2

Source: the RNAGym collection of RNA variant scans (doi:10.1073/pnas.2313332121)
